# Results: PubChem BioAssay AID1240 (Sanford-Burnham Center for Chemical Genomics, 2008)
# Among all 50,000 compounds or so, about 800 (1.6%) showed an effect of 50% or more. Some of the results follow.
# Biological target: Bcl-2-like protein 10 (Homo sapiens) (UniProt Q9HD36)
# Assay: Phenotype converters, Bcl-B/TR3 peptide binding displacement, primary biochemical FP (AID 1240);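 note: 0% = Bcl-B with tracer peptide and DMSO and 100% = tracer peptide lacking Bcl-B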
# Details: GST-Bcl-B / FITC-TR3 peptide fluorescence polarization; stronger effect = higher value; compound at 3.75 mg/L
# Chain of UniProt Q9HD36 (Q9HD36 whole entry, looked up): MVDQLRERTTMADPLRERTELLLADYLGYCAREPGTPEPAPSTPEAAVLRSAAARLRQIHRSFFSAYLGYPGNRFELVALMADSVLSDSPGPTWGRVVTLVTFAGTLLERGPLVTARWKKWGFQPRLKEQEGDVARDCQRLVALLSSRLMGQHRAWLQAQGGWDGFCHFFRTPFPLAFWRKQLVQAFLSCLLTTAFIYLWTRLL
row,SMILES,displacement [%]
1,N#C/C(=C\NCC(=O)O)C(=O)NCc1ccccc1,3.7
2,CCOCCOC(=O)c1ccc(NC(=O)c2cncc(Br)c2)cc1,6.2
3,O=C(Nc1ccc(Cl)c(Cl)c1)c1ccccc1C(F)(F)F,-5.1
4,O=C(NN1CCOCC1)c1cccs1,3.1
5,O=C1C(Cl)=C(NCCc2ccccc2)C(=O)N1c1ccccc1,16.4
6,COc1cc(OC)c(-c2nc3sc4c(c3c(=O)[nH]2)CCCC4)cc1Br,-14.1
7,O=C(CSc1nc2ccccc2s1)Nc1ccccc1[N+](=O)[O-],-10.7
8,CC(C)(C(=O)c1ccccc1)/[N+]([O-])=C/c1ccccc1,-1.5
9,Cc1cc(=O)[nH]c(N/N=C/c2ccc(Br)cc2)n1,-2.8
10,O=S(=O)(c1ccccc1)N1CCN(Cc2ccccc2Br)CC1,-21
11,CCOc1ccc2sc(NC(=O)CCCC(=O)OCC(F)(F)C(F)F)nc2c1,1
12,CC(=C\c1ccccc1)/C=C1/SC(=S)N(c2cccc(Cl)c2)C1=O,5.1
13,O=C1C2C(c3ccc(Cl)cc3)OC3(C(=O)c4ccccc4C3=O)C2C(=O)N1c1cccc(F)c1 (stereo not given),-24.3
14,Cc1cc(C)n(CCOc2nonc2N)n1,6.5
15,O=C(c1cccnc1)N1N=C2CCCCCC2C1(O)C(F)(F)F (stereo not given),-19.7
16,COc1cc(C(=O)NC(NC(=S)Nc2ccc(Cl)c(Cl)c2)C(Cl)(Cl)Cl)cc(OC)c1OC (stereo not given),14.8
17,CC(=O)OCCCNC(=O)/C(=C\c1ccc(Br)cc1)NC(=O)c1ccccc1,2.7
18,O=C(NCCc1ccccc1)C1COc2ccccc2O1 (stereo not given),3.8
19,Cc1cc(C)n2nc(-c3cccc(Cl)c3)cc2n1,2.7
20,Cc1ccccc1CN1CCN(C(=O)C(c2ccccc2)c2ccccc2)CC1,-8.7
21,Cc1cc(C)nc(/N=C(/N)Nc2cccc(C(F)(F)F)c2)n1,-2
22,C=CCn1c2ccccc2n2nc(C)c(C(=O)/C=C/c3ccccn3)c12,-4.5
23,O=C(c1ccc(S(=O)(=O)N2CCCCCC2)cc1)N1CCN(c2ccccc2)CC1,0.7
24,O=C1NC(=O)N(c2ccccc2)C(=O)/C1=C\c1ccc(OCc2ccccc2F)cc1,12.9
25,C/C(=C1/SC(=S)NC1=O)c1ccc(C)cc1,12.6
26,Cc1ccc(-c2nnc(N)s2)cc1C,5.1
27,Cc1ccc(N(CC(=O)Nc2ccc(Cl)cc2)S(C)(=O)=O)cc1Cl,7.8
28,O=C(O)c1cc(S(=O)(=O)N(CCO)CCO)ccc1Cl,-7.4

row,SMILES,displacement [%]
1,O=C(Nc1ccc(Cl)c(C(F)(F)F)c1)c1ccccc1Br,1.1
2,CCN(CC)c1ccc(/C=N\N2CCN(Cc3ccc(C)cc3)CC2)c(O)c1,1.8
3,O=C1N=C(N2CCCCC2)S/C1=C\c1ccc(F)cc1,-19.3
4,O=C(CSc1ccccn1)Nc1ccc(/C=C/c2ccccc2)cc1,-1.1
5,Cc1onc(-c2ccccc2)c1C(=O)N(C)C,-0.2
6,COC(=O)c1ccc(NC(=O)Cc2ccccc2)cc1,-15
7,O=c1c(C(c2ccccc2)c2ccccc2)c(O)nc2n1CCCS2,-2.7
8,Cc1ccc(-c2nc3sc4c(c3c(=O)[nH]2)CCCC4)cc1,-2.6
9,O=C(NN=C1CCCCCC1)c1ccc(Cl)c(Cl)c1,10.3
10,O=S(=O)(c1ccc(Cl)cc1)N1CCNCC1,-13.9
11,CSCCC(C(=O)O)N1C(=O)NC2NC(=O)NC21 (stereo not given),3.3
12,CN(C)c1ccc(/C=C2/C(=O)NN(c3ccc(F)c(Cl)c3)C2=O)cc1Br,22.9
13,O=C(O)c1ccc(NC(=O)c2cc3cc(Br)ccc3oc2=O)cc1,0.3
14,Cc1cc(C)c(NC(=O)c2ccc([N+](=O)[O-])c(C)c2)c(C)c1,0.3
15,Cc1ccc(COc2ccc(C=C3C(=O)NC(=O)NC3=O)cc2Br)cc1,8
16,O=C(O)c1ccc2c(c1)C(=O)N(c1ccc(C(=O)Nc3cccc(O)c3)cc1)C2=O,-4.9
17,O=C(NCc1ccc2c(c1)OCO2)c1ccc(C#CC2(O)CCCCC2)cc1,-1
18,COc1ccc(Br)cc1CNCc1ccc(OC)c(OC)c1,3.3
19,COc1ccc(NC(=O)CN(c2cccc(C(F)(F)F)c2)S(C)(=O)=O)c(OC)c1,7.1
20,O=C(CN1C(=O)c2ccc([N+](=O)[O-])cc2C1=O)NN1C(=O)c2ccccc2C1=O,-3.8
21,c1ccc(-c2ccc(-n3cnc4ccccc43)cc2)cc1,1.8
22,CC(C)(C)c1ccc(C(=O)Nc2cc(C(N)=O)cc(C(N)=O)c2)cc1,-3.4
23,CC(C)Cn1c(=O)c(C(=O)Nc2ncccn2)c(O)c2ccccc21,10.4
24,CCN(CC)c1ccc(NC(=O)c2ccc3ccccc3c2)cc1,12.9
25,CCOC(=O)C1=C(C)N(c2ccc(C)cc2)C(=O)/C1=C\c1cccc(OC)c1O,12.9
26,O=C(CN1C2=NCCN2c2ccccc21)c1ccc(Br)s1,8.6
27,Cc1ccc(S(=O)(=O)Nc2cc(C(C)(C)C)c(O)c(C(C)(C)C)c2)cc1,1.2
